This passage reports switch fluorescence ratio results from the supplement of paper PMC10126150.

Sequences with one replicate were seen in a single cluster, so their values are uncertain.

This data set deals with ATP. The data set can be described thus: switch fluorescence ratio, 500 uM ATP over buffer (Cy3 cluster intensity, sum of 5 cycles each) (fold (ratio)); higher = stronger signal-on switching upon ATP binding; sequences stand for … in TCGTCGGCAGCGTCAGATGTGTATAAGAGACAGTTTTTTTTTTTTTTTTTTTTTTTTT…TC. The conditions noted are these: aptamer strand: ATP DNA aptamer (quencher-CACCTGGGGGAGTATTGCGGAGGAAGG + anchor), 100 nM annealed; ATP concentration: 500 uM; one replicate. Put shortly:
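Switching-strand clusters labelled with Cy3 on a modified Illumina MiSeq flow-cell were annealed to 100 nM quencher-labelled ATP aptamer, imaged in selection buffer, and re-imaged after 15 min with 500 uM ATP at 22 °C. This was done over five cycles with NaOH stripping and re-annealing in between. The fluorescence ratio is summed target-cycle over summed buffer-cycle Cy3 intensity per cluster, averaged per switch-domain sequence, excluding clusters outside 100-1000 RFU.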
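Note: ATP exposure 15 min at 22 °C before imaging.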

Turning to TCTATGATG, the switch fluorescence ratio amounted to 1.

For the sequence GAATCAACCA, the switch fluorescence ratio is 0.998.

As for GTCTTAAGCT, the switch fluorescence ratio turned out to be 0.961.

With CCTTTAGGCC, the switch fluorescence ratio was found to be 0.989.

In the case of TTTCCGTCTT, the switch fluorescence ratio was 1.01.

On to GCTCAATGGG, for which the switch fluorescence ratio is 0.968.

For CATATTCCTG, the switch fluorescence ratio was found to be 0.981.

For the sequence CCAGCGAGTA, the switch fluorescence ratio came out at 1.04.

Regarding GACGAGACAT, the switch fluorescence ratio came out at 1.17.

For GATTTCGACG, the switch fluorescence ratio was found to be 1.05.

On to TAGTATTGAG, for which the switch fluorescence ratio worked out at 1.03.

AGGGTAGGCT: the switch fluorescence ratio amounted to 1.03.

Take CACGCACTTA: the switch fluorescence ratio is 1.53.

As to AGATCAACCG, the switch fluorescence ratio amounted to 1.

In the case of TAAAGTGT, the switch fluorescence ratio is 0.976.

In the case of GAAAGGCGTG, the switch fluorescence ratio stood at 1.01.

On to CAAGCTCTCT, for which the switch fluorescence ratio was 1.02.

As to AGGTCTCCC, the switch fluorescence ratio came to 0.984.

As for CACGCCAGCT, the switch fluorescence ratio was 1.08.

With AGCGACTGTG, the switch fluorescence ratio was found to be 0.98.

Regarding TTGATCGAAA, the switch fluorescence ratio was determined as 1.

As for TTCTTATC, the switch fluorescence ratio worked out at 1.02.

Regarding CTGGTGGAAG, the switch fluorescence ratio came to 0.946.

With GAAATAGTAA, the switch fluorescence ratio amounted to 0.998.

For GTTAACGGTG, the switch fluorescence ratio is 1.05.

As to TTACGATAGG, the switch fluorescence ratio was determined as 1.1.

Consider AGCGGGGTGG, for which the switch fluorescence ratio amounted to 0.926.

In the case of GACGGTAGTC, the switch fluorescence ratio is 0.971.

Turning to TATTAAGA, the switch fluorescence ratio is 1.02.

As for TGCATCTTGG, the switch fluorescence ratio was determined as 1.05.

For AAAGGGGTTC, the switch fluorescence ratio was 0.933.

As to AGCCGTGTAC, the switch fluorescence ratio worked out at 1.33.

For TGAAAATAAC, the switch fluorescence ratio was 1.03.

On to CATCCTAGCA, for which the switch fluorescence ratio amounted to 1.97.

In the case of GTTGGCCGAG, the switch fluorescence ratio came to 0.986.

In the case of GCTCGGGGGT, the switch fluorescence ratio was found to be 0.979.

With AGTTGAGAA, the switch fluorescence ratio worked out at 1.03.

Turning to GTCAATGGCT, the switch fluorescence ratio was 1.01.

In the case of ATGAGCCTC, the switch fluorescence ratio came out at 0.984.

For TAGAAGAAG, the switch fluorescence ratio was 0.979.

For TCACTAGGAA, the switch fluorescence ratio is 1.07.

On to ATTCATGGCG, for which the switch fluorescence ratio was determined as 1.

For GCGTTACGTG, the switch fluorescence ratio came to 0.954.

In the case of TGTAAACGAT, the switch fluorescence ratio stood at 1.19.

For the sequence GCATAGATGG, the switch fluorescence ratio came to 1.02.

Regarding AGAGCTTCGA, the switch fluorescence ratio came out at 0.967.

GTTAGACACT: the switch fluorescence ratio is 0.992.

With TTACTACTTA, the switch fluorescence ratio came to 1.06.

In the case of TGGAAAGTGC, the switch fluorescence ratio came out at 1.04.

On to AACACTGG, for which the switch fluorescence ratio was 1.05.

Take CGTCGGCGTT: the switch fluorescence ratio amounted to 1.01.

Consider TAAAGCATCG, for which the switch fluorescence ratio was 0.988.

With TGGCCCGGCC, the switch fluorescence ratio turned out to be 0.998.

Regarding CGTACATAGC, the switch fluorescence ratio came to 1.13.

Regarding TGACGTATGC, the switch fluorescence ratio is 1.22.

Take ATACTACTTA: the switch fluorescence ratio was found to be 1.02.

For CAACGGTTC, the switch fluorescence ratio was determined as 1.06.

GGTACATGAC: the switch fluorescence ratio was 1.09.

Regarding ATTCTTTATT, the switch fluorescence ratio is 1.07.

As for GGTATTTTAT, the switch fluorescence ratio is 0.999.

Take GTAACCCACA: the switch fluorescence ratio was found to be 1.36.

As for ATGATGAGGA, the switch fluorescence ratio worked out at 1.01.

With TAGGTTTGAT, the switch fluorescence ratio was determined as 0.96.

Regarding TTCTAGGGAT, the switch fluorescence ratio turned out to be 0.998.

For the sequence GTATGCCATT, the switch fluorescence ratio is 0.991.

On to GAGAGTCTGG, for which the switch fluorescence ratio came out at 0.937.

TATGGTTAGT: the switch fluorescence ratio is 1.03.
